# According to PubChem BioAssay AID686970 (National Center for Advancing Translational Sciences (NCATS), 2013):
# In all, about 360,000 compounds went through this assay and about 6,000 (1.7%) were called active. This list was built around the results that the source calls inconclusive (neither active nor inactive); the mix of calls is not that of the screen. Calls follow the shape of the dose curve; as a rule, active = well fitted cell-killing curve with a large enough effect; inconclusive = small, poorly fitted or top-dose-only effect, or effect the other way; inactive = flat fitted curve, though single readings scatter. Potencies of inconclusive entries are left out as doubtful fits.
# Experiment: qHTS for induction of synthetic lethality in tumor cells producing 2HG: qHTS for the HT-1080-NT fibrosarcoma cell line;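 also: NT is the 2HG producing partner of a matched IDH1 knockdown line; nearly all actives have a fitted effect of over 55% in size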;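 as to activity, negative = less viability: 0% = DMSO-treated cells and -100% = media-only wells without cells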
# Details: HT-1080-NT fibrosarcoma viability, CellTiter-Glo ATP luminescence, 48 h; activity, negative = less viability: at 46.1 µM (top of the series) unless noted
# In short: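 Luminescent CellTiter-Glo readout after 48 hours of compound exposure at 37 degrees C defined viability of HT-1080-NT cells. Activity was normalized to DMSO wells and cell-free media wells; concentration-response curves were fitted and assigned curve classes.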
# Potency is read from the fitted curve at half-maximal effect; tags tell the direction and shape of the fitted curve.
SMILES,Potency,"activity, negative = less viability"
CS(=O)(=O)Nc1ccc(C2=NN(S(=O)(=O)c3ccc(F)cc3)C(c3ccco3)C2)cc1 (centres undefined),"inconclusive [cytotoxic, partial curve]",
COc1ccc(NC(=O)c2ccccc2NC(=O)c2ccccc2C(=O)O)c(OC)c1,"inconclusive [rising, partial curve, poor fit]",
Cc1ncc(CO)c2c1Oc1nc(-c3ccccc3)nc(SCC(=O)N3CCCCC3)c1C2,"inconclusive [cytotoxic, single point]",
OCC[C@@H]1C[C@H](O)[C@@H](O)[C@@]2(OCCCc3cc(C(F)(F)F)ccc32)O1,,inactive: 6.28%
COc1ccc(Cl)cc1Nc1nc(N)c2ccccc2n1,"inconclusive [cytotoxic, single point]",
COc1ccc(-c2cccc(-c3cc(=O)oc4ccc(C(C)(C)C)cc34)c2)cc1,,inactive: -0.478%
CC1CC2C3CCC4=CC(=O)C=CC4(C)[C@@]3(Cl)C(O)CC2(C)C1(O)C(=O)CO (some centres undefined),"inconclusive [rising, full curve, poor fit]",
Cc1ccc(OCCSCc2nnc(NC(=O)Nc3cccc(Cl)c3)s2)cc1,"inconclusive [cytotoxic, partial curve]",
CCCCCCCCN1C(=O)[C@H](CC(=O)NCC23CC4CC(CC(C4)C2)C3)C[C@@]2(C(=O)OCC)CCC=C12,"inconclusive [cytotoxic, single point]",
N#Cc1cccc(NC(=O)c2cc(C3CCCCN3C(=O)c3ccccn3)on2)c1 (centres undefined),"inconclusive [rising, single point]",
O=C(NCc1ccco1)c1ccc(S(=O)(=O)N2CCCc3ccccc32)cc1,"inconclusive [cytotoxic, single point]",
O=C(CCS(=O)(=O)c1ccccc1)Nc1ccccc1F,,inactive: -2.94%
COc1ccccc1NC(C)C(=O)N/N=C/c1ccccc1OCc1cccc(Br)c1 (centres undefined),"inconclusive [cytotoxic, single point]",
COc1ccc(-c2n(CC(=O)OC3CC(C)CCC3C(C)C)c3ccccc3[n+]2C)cc1 (centres undefined),active: 6.51 µM,
COc1ccc(-c2csc(NC(=S)NC(=O)/C=C/c3ccco3)n2)cc1OC,active: 11.6 µM,
COc1ccc(C(CCN(Cc2ccc(OC)c(OC)c2)C(C)=O)C(C)C)cc1 (centres undefined),,inactive: 0.121%
CCn1c(SCC(=O)Nc2ccc(N3CCOCC3)cc2)nnc1-c1ccncc1,,inactive: 0.171%
CCc1nc2c(OCCOc3ccc(F)cc3)cccn2c1N(C=O)Cc1ccccc1,,inconclusive: 10.8%
Cc1cccc(NC(=O)CSc2nnc(CCC(=O)Nc3ccc(C)c(Cl)c3)n2C)c1,"inconclusive [cytotoxic, partial curve]",
O=C(c1ccc(CNS(=O)(=O)c2ccccc2)cc1)N1CCN(Cc2ccccc2)CC1,"inconclusive [cytotoxic, single point]",
CCCCOc1ccc(C(=O)NNC(=O)c2cnccn2)cc1OC,"inconclusive [cytotoxic, single point]",
COc1ccc(/C=N/Nc2cc(C)nc3ccc(OC)cc23)c(OC)c1,active: 23.1 µM,
CCCCC(=O)NC(c1ccco1)c1cc(Cl)c2cccnc2c1O (centres undefined),"inconclusive [cytotoxic, single point]",

SMILES,Potency,"activity, negative = less viability"
CCN(CC)S(=O)(=O)c1cc([N+](=O)[O-])ccc1NNC(=O)Nc1ccc(Cl)c(Cl)c1,active: 5.8 µM,
CCOC(=O)c1c(-c2ccccc2)csc1NC(=O)c1cccc(N2C(=O)CCC2=O)c1,"inconclusive [cytotoxic, single point]",
O=[N+]([O-])c1cc(S(=O)(=O)NCCN2CCOCC2)ccc1Sc1nnnn1-c1ccccc1,"inconclusive [cytotoxic, single point]",
O=C(Nc1ccc(O)cc1)/C(=C/c1ccco1)NC(=O)c1ccccc1,"inconclusive [rising, single point]",
Cc1c(Cl)c(C(=O)N2CCCc3ccccc32)nn1C,,inactive: 7.23%
Cc1cccc(N(C)C(=O)c2cc3cc4ccc(C)cc4nc3o2)c1,"inconclusive [cytotoxic, single point]",
COc1ccc(NC(C#N)c2ccccc2OCc2ccccc2)cc1 (centres undefined),,inconclusive: -32.8% [cytotoxic]
COc1ccc(CC2c3cc(OC)c(OC)cc3CC[N+]2(C)CCC(=O)OCCCCCOC(=O)CC[N+]2(C)CCc3cc(OC)c(OC)cc3C2Cc2ccc(OC)c(OC)c2)cc1OC (centres undefined),active: 18.4 µM,
CCCCc1c(Cc2ccccc2)ncn1CCc1ccccc1OC,"inconclusive [cytotoxic, partial curve, poor fit]",
COc1cc(N2CCC(O)CC2)ccc1Nc1nnc(Cl)c(Nc2ccccc2S(C)(=O)=O)n1,"inconclusive [cytotoxic, partial curve]",
CC(C)(C)NC(=O)C(c1ccncc1)n1c(-c2ccc(C(F)(F)F)cc2)nc2ccccc21 (centres undefined),"inconclusive [cytotoxic, single point]",
CN1C2C=CC(=O)C1C1C(=O)N(c3ccccc3)C(=O)C12 (centres undefined),"inconclusive [cytotoxic, single point]",
Cc1ccc(NC(=O)NCc2ccc3c(c2)OCO3)cc1C,,inactive: 21.5%
O=C(c1cc(Cl)cc(Cl)c1)N1CCC(=O)N([C@H](COCc2ccccc2)Cc2ccccc2)CC1,"inconclusive [cytotoxic, single point]",
Cc1ccnc(NS(=O)(=O)c2ccc(NC(=O)c3ccc([N+](=O)[O-])s3)cc2)n1,"inconclusive [cytotoxic, single point]",
CC1CCN(c2nc3ccc(C(=O)NCCCN4CCCCC4)cc3s2)CC1,"inconclusive [cytotoxic, single point]",
CC(/C=N\NC(=O)Cn1c(C)nc2ccccc21)=C\c1ccccc1,active: 8.2 µM,
CCSc1n[nH]c2nc3c(c(=O)n12)C1(CCCC1)Cc1ccccc1-3,"inconclusive [cytotoxic, partial curve]",
COc1cc(OC)c(N(C)S(=O)(=O)c2cccc(C(=O)NC3=NCCS3)c2)cc1Cl,"inconclusive [cytotoxic, single point]",
Cc1cc(NC(=O)c2ccc3nccnc3c2)ccc1Br,,inactive: -10.4%
CC(=O)c1cccc(-c2ccnc3c2CC(C(=O)Nc2cccc(N(C)C)c2)O3)c1 (centres undefined),"inconclusive [cytotoxic, partial curve]",
Cc1ccc(-c2ccc(CN3C(C(C)C)C(=O)N(Cc4cn(Cc5ccco5)nn4)CCS3(=O)=O)cc2)cc1 (centres undefined),"inconclusive [cytotoxic, single point]",
COc1ccc(OC)c(C(=O)c2ccc(C(=O)Nc3ccc(NC(C)=O)cc3)cc2)c1,"inconclusive [cytotoxic, single point]",

SMILES,Potency,"activity, negative = less viability"
CCOC(=O)C1(Cc2ccc(OC)cc2)CCN(C(=O)c2cc(C)nn2C)CC1,"inconclusive [cytotoxic, single point]",
Cc1ccc(NC(=O)CS(=O)CC(=O)N(c2ccccc2F)C(C)C(=O)NC2CCCC2)cc1 (centres undefined),,inactive: 7.67%
CC(C)NC(=O)c1c(O)c2cccc3c2n(c1=O)CCC3,,inactive: 6.64%
CN(C)c1ccnc2sc(C(=O)NCc3ccccc3)c(N)c12,"inconclusive [cytotoxic, single point]",
O=C(CCc1c[nH]c2ccccc12)N1CCN(c2ccc(O)cc2)CC1,"inconclusive [cytotoxic, partial curve]",
Cc1ccccc1OCc1nc2ccccc2c(=O)n1N,,inactive: 1.04%
COc1ccccc1N1CCN(C(=O)c2cc3c(s2)-c2ccccc2OC3)CC1,"inconclusive [cytotoxic, single point]",
Nc1c(Br)cc(Br)c(N2CCCC2=O)c1Br,,inactive: -1.14%
O=C(NCc1ccc(F)cc1)c1cc(C2CCCN(C(=O)C3CCCCC3)C2)on1 (centres undefined),,inactive: 13.7%
O=C(COC(=O)c1ccccc1C(=O)c1ccc(Cl)c([N+](=O)[O-])c1)NC1CC1,active: 6.51 µM,
CN[C@H]1C[C@H]2c3[nH]c4ccc(-c5ccc(OC)cc5)cc4c3CCN2C(=O)[C@H]1[C@H](C)O,active: 8.2 µM,
COc1cccc(/C=N/Nc2nc3ccccc3[nH]2)c1O,,inconclusive: -33% [cytotoxic]
CN1CCc2c(sc3c2c(=O)n(-c2ccc(Cl)cc2)c2nncn32)C1,,inactive: 12.1%
COCCC(=O)N1CCC(Oc2ccc(C(=O)N(C)C3CCCCC3)cc2)CC1,,inactive: 5.75%
CC(=O)NCc1ccc(C(=O)CCl)s1,"inconclusive [cytotoxic, single point]",
CCOc1ccccc1CNC(=O)C1CCN(c2nnc(C)c3c(C)n(-c4ccc(C)cc4)nc23)CC1,"inconclusive [cytotoxic, partial curve]",
C=CCC(NCc1ccccc1)c1ccc(Cl)cc1 (centres undefined),,inactive: -5.82%
CC1CC(C)(C)NC(=S)N1CCC(=O)N1CCc2ccccc21 (centres undefined),,inactive: -2.07%
O=C(Nc1ccc(Oc2ccc(C(F)(F)F)cn2)c(Cl)c1)C1CC1,"inconclusive [cytotoxic, single point]",
Cn1c(Cc2csc(N)n2)nnc1SCC(=O)NCc1ccccc1,"inconclusive [cytotoxic, full curve, poor fit]",
COc1ccccc1Nc1nc(-c2c(C)nc3ncccn23)cs1,active: 23.1 µM,
O=C1C=C(Nc2ccc(Cl)cc2)CC(c2ccccc2)C1 (centres undefined),active: 11.6 µM,
COc1cnc(-c2ccccn2)nc1NC(C)C,"inconclusive [cytotoxic, full curve]",
